Measurements published in publication PMC10114980, “Triple targeting of mutant EGFR^L858R/T790M, COX-2, and 15-LOX: design and synthesis of novel quinazolinone tethered phenyl urea derivatives for anti-inflammatory and anticancer evaluation” (Journal of Enzyme Inhibition and Medicinal Chemistry, 2023).

Tests used:
[1] = tested on: LPS-induced TNF-α production in RAW 264.7 cells; assay: TNF-α production in LPS-activated RAW 264.7 cells (ELISA); assay type: cell-based; settings: LPS-activated RAW 264.7 cells treated with 25 µM of the compound
ovine COX-1 = target: T1, ovine COX-1 (Ovis aries, UniProt P05979); assay: In vitro COX-1 inhibition assay kit (Cayman); assay type: biochemical; settings: mean ± SEM, n = 3 replicates
T1 sequence (P05979 25-600): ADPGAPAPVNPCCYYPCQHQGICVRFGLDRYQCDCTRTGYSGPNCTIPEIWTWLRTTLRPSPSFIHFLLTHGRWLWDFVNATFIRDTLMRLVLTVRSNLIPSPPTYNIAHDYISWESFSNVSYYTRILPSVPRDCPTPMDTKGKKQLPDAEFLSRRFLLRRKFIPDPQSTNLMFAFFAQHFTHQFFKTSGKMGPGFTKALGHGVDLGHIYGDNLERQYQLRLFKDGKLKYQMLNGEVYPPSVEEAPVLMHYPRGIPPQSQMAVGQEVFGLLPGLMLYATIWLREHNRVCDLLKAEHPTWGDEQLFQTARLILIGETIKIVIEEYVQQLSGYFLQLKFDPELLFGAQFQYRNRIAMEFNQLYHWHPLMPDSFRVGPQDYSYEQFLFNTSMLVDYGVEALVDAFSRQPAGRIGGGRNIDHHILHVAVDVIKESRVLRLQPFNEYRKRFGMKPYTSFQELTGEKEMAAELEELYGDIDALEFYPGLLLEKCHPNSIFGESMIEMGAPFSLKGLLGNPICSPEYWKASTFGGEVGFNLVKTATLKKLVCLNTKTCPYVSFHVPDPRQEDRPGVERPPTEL

[2] = target: T2, double mutant EGFR^L858R/T790M (Homo sapiens, UniProt P00533, L858R/T790M); assay: In vitro EGFR inhibition assay, double mutant; assay type: biochemical; settings: for IC50 / EGFR^L858R/T790M IC50: double mutant EGFR; for Selectivity (SI): ratio of the IC50 values EGFR^WT/EGFR^L858R/T790M
T2 construct: purchased AssayQuant Technologies, Inc. (Marlboro, MA, USA)

[3] = tested on: LPS-induced NO production in RAW 264.7 cells; assay: NO production in LPS-activated RAW 264.7 macrophage cells (DAF-FM diacetate); assay type: cell-based; settings: Mus musculus, RAW264.7; LPS-activated RAW 264.7 cells; mean ± SEM, three replicates
Method: (§1) TNF-α and IL-6 production were detected in RAW 264.7 macrophage cell culture supernatants following the induction of inflammation by LPS. Moreover, the probes of oxidative species 2,7-dichlorofluorescein diacetate (DCFH-DA) (Molecular Probes) and NO, 4-amino-5-methylamino-2,7-difluorofluorescein diacetate (DAF-FM diacetate) (Molecular Probes) were used to investigate the antioxidant and NO production inhibitory potential of the test compounds. Briefly, RAW 264.7 cells were cultured in black 96 well plates (200 000 cells/mL, 100 µl/well) for 24 h followed by the incubation with the individual test compounds or the reference drugs at different concentrations (12.5, 25, 50, and 100 µM) for 2 h at 37 °C. LPS was then added at a final concentration of 1 µg/mL for an additional 18 h. The cell culture supernatant was collected from cells treated with the different compounds at 25 µM to measure TNF-α and IL-6 levels (1:10 dilution) using DuoSet ELISA kits (R&D Systems, Minneapolis, MN) following the manufacturer’s instructions. Then, the plates were washed to perform ROS and NO detection assays as detailed in our previous studies[16]^,[27].

wild-type EGFR = target: T3, wild-type EGFR (Homo sapiens, UniProt P00533); assay: In vitro EGFR inhibition assay, wild type; assay type: biochemical; settings: for IC50: read-out: EGFR^WT IC50
T3 construct: purchased AssayQuant Technologies, Inc. (Marlboro, MA, USA)

[4] = tested on: LPS-induced IL-6 production in RAW 264.7 cells; assay: IL-6 production in LPS-activated RAW 264.7 cells (ELISA); assay type: cell-based; settings: LPS-activated RAW 264.7 cells treated with 25 µM of the compound
[5] = tested on: LPS-induced ROS production in RAW 264.7 cells; assay: ROS production in LPS-activated RAW 264.7 macrophage cells (DCFH-DA); assay type: cell-based; settings: LPS-activated RAW 264.7 cells; for IC50: Mus musculus, RAW264.7
Method: as §1

soybean 15-LOX = target: T4, soybean 15-LOX (Glycine max, UniProt P08170); assay: 15-LOX inhibitor screening assay (Cayman); assay type: biochemical; settings: mean ± SEM, n = 3 replicates
T4 sequence (P08170 1-839): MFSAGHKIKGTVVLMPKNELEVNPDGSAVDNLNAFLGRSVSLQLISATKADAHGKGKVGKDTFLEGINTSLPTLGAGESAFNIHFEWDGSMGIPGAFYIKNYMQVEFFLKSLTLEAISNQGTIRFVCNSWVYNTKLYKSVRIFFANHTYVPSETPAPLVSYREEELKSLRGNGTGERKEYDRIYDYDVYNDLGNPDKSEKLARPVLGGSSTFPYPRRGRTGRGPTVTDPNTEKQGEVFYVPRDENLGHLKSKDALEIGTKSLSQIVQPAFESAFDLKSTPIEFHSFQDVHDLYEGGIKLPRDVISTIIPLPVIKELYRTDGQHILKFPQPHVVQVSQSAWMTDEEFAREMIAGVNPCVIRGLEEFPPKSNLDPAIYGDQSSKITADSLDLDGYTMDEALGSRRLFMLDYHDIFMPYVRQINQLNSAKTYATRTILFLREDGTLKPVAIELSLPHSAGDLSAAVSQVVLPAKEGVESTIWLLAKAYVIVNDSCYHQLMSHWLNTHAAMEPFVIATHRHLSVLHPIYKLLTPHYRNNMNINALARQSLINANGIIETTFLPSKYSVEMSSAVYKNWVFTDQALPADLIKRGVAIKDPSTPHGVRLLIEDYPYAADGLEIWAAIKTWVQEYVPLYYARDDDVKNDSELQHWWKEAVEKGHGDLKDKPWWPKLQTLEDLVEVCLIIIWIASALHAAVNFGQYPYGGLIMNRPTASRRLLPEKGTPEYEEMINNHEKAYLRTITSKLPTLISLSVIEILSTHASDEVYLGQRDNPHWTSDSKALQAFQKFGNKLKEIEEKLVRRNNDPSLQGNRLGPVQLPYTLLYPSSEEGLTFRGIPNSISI

human recombinant COX-2 = target: T5, human recombinant COX-2 (Homo sapiens, UniProt P35354); assay: In vitro COX-2 inhibition assay kit (Cayman); assay type: biochemical; settings: for IC50: human recombinant COX-2, mean ± SEM, n = 3 replicates; for COX-2 SI: Selectivity index = COX-1 IC50/COX-2 IC50
T5 sequence (P35354 18-604): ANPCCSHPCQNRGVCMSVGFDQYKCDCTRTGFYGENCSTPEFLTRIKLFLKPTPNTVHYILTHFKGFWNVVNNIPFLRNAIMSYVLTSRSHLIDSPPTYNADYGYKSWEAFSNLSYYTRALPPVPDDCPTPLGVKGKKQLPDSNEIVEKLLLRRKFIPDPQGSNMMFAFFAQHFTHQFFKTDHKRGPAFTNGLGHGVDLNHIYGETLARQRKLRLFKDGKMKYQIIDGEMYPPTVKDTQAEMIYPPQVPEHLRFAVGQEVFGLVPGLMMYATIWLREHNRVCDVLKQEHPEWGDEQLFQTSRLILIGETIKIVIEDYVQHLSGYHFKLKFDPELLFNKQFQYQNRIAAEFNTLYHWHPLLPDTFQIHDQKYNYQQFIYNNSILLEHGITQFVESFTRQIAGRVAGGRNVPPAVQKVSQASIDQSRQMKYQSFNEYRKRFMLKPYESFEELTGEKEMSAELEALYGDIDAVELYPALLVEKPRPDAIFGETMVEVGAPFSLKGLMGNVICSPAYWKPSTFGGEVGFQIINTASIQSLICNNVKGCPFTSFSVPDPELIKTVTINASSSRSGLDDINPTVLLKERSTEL

Row | SMILES | TNF-α concentration [1] | IC50 (ovine COX-1) | melting point | IC50 [2] | Selectivity (SI) [2] | IC50 [3] | IC50 (wild-type EGFR) | IL-6 concentration [4] | ROS inhibition, fold more potent than diclofenac [5] | IC50 ([5]; mean ± SEM, three replicates) | IC50 (soybean 15-LOX) | EGFR^L858R/T790M IC50 [2] | EGFR^WT IC50 (wild-type EGFR) | IC50 (human recombinant COX-2) | COX-2 SI (human recombinant COX-2) | ROS IC50 ([5]; mean ± SEM, three replicates) | TNF-α concentration ([1]; listed as celecoxib) | IL-6 concentration ([4]; listed as celecoxib)
1 | COc1ccc(NC(=O)NN2C(=O)c3ccccc3N(C)C2c2ccc([N+](=O)[O-])cc2)cc1 (stereo not drawn) [Compound 6i, 1-(4-Methoxyphenyl)-3-(1-methyl-2-(4-nitrophenyl)-4-oxo-1,4-dihydroquinazolin-3(2H)-yl)urea] | 1821.00 ± 10.40 pg/mL | 7.63 ± 2.07 µM | 217 to 219 °C | 51.5 ± 4.58 µM | >1.9 | 7.89 ± 1.02 µM | > 100 µM | 84.60 pg/mL and 84.60 ± 2.67 pg/mL | ≈ 8 fold | 5.9 ± 1.84 µM | 2.07 ± 0.27 µM | – | – | – | – | – | – | –
2 | CC1N(NC(=O)Nc2ccccc2)C(=O)c2ccccc2N1C (stereo not drawn) [Compound 6b, 1-(1,2-Dimethyl-4-oxo-1,4-dihydroquinazolin-3(2H)-yl)-3-phenylurea] | 779.60 pg/mL and 779.60 ± 7.41 pg/mL | 33.6 ± 3.17 µM | 161 to 163 °C | > 100 µM | – | 1.57 ± 1.29 µM | > 100 µM | 512.1 ± 46.13 pg/mL | – | 55.5 ± 1 µM | 2.32 ± 0.31 µM | did not show any inhibitory activity | did not show any inhibitory activity | > 100 µM | – | – | – | –
3 | O=C(O)Cc1ccccc1Nc1c(Cl)cccc1Cl [Diclofenac, diclofenac sodium, reference compound] | – | – | – | – | – | 24.08 ± 0.15 µM | – | – | – | 43.8 ± 1.04 µM | – | – | – | – | – | – | – | –
4 | CN1CN(NC(=O)Nc2ccc(F)cc2)C(=O)c2ccccc21 [Compound 6k, 1-(4-Fluorophenyl)-3-(1-methyl-4-oxo-1,4-dihydroquinazolin-3(2H)-yl)urea] | 2024.00 ± 26.30 pg/mL | 57.7 ± 2.41 µM | 246 to 248 °C | > 100 µM | – | 3.1 ± 0.86 µM | > 100 µM | 88.53 pg/mL and 88.53 ± 0.87 pg/mL | ≈ 8 fold | 5.04 ± 1.43 µM | 2.08 ± 0.33 µM | did not show any inhibitory activity | did not show any inhibitory activity | 5.13 ± 1.37 µM | 11.24 | – | – | –
5 | COc1ccc2c(c1)c(CC(=O)O)c(C)n2C(=O)c1ccc(Cl)cc1 [Indomethacin, indomethacin, reference compound] | – | – | – | – | – | 46.5 ± 1.07 µM | – | – | – | 79.4 ± 1.14 µM | – | – | – | – | – | – | – | –
6 | COc1ccc(C2N(NC(=O)Nc3ccccc3)C(=O)c3ccccc3N2C)cc1 (stereo not drawn) [Compound 6f, 1-(2-(4-Methoxyphenyl)-1-methyl-4-oxo-1,4-dihydroquinazolin-3(2H)-yl)-3-phenylurea] | 1239.00 ± 20.50 pg/mL | 3.6 ± 1.57 µM | 198 to 200 °C | > 100 µM | – | 4.05 ± 0.35 µM | > 100 µM | 207.3 ± 4.51 pg/mL | – | 63.6 ± 1.3 µM | 2.13 ± 0.26 µM | did not show any inhibitory activity | did not show any inhibitory activity | 2.13 ± 1.37 µM | 1.69 | – | – | –
7 | COc1ccc(NC(=O)NN2CN(C)c3ccccc3C2=O)cc1 [Compound 6g, 1-(4-Methoxyphenyl)-3-(1-methyl-4-oxo-1,4-dihydroquinazolin-3(2H)-yl)urea] | 1292.00 ± 16.72 pg/mL | – | 219 to 221 °C | 8.14 ± 1.07 µM | >12.3 | 1.24 ± 0.56 µM | > 100 µM | 363.2 ± 12.62 pg/mL | – | > 100 µM | 1.61 ± 0.23 µM | – | – | 3.92 ± 1.44 µM | 0.78 | neither compound 6e nor compound 6g inhibited ROS production significantly | – | –
8 | Cc1ccc(-c2cc(C(F)(F)F)nn2-c2ccc(S(N)(=O)=O)cc2)cc1 [Celecoxib, celecoxib, reference compound] | 383.3 ± 27.8 pg/mL | – | – | – | – | 14.39 ± 0.08 µM | – | 176.4 ± 70.48 pg/mL | – | 7.57 ± 1.32 µM | – | – | – | – | – | – | 383.3 pg/mL | 176.4 pg/mL

Several values for one entry are separate records, joined by “and”; a condition that tells them apart may be missing. Identical values can stand only once.
